Laboratory results from article PMC8865542.
These are yes or no findings as the source states them, for the method shown. For some of these results: In cells and extracts the contact can be indirect. Some entries that bind do so weakly or less than the wild type. Sequences can lack the tags named with a protein.

Amino acid sequences for entries named in this document (tags omitted). A change or cut given only in a name is not applied to a line headed by its entry.
UniProt P12956: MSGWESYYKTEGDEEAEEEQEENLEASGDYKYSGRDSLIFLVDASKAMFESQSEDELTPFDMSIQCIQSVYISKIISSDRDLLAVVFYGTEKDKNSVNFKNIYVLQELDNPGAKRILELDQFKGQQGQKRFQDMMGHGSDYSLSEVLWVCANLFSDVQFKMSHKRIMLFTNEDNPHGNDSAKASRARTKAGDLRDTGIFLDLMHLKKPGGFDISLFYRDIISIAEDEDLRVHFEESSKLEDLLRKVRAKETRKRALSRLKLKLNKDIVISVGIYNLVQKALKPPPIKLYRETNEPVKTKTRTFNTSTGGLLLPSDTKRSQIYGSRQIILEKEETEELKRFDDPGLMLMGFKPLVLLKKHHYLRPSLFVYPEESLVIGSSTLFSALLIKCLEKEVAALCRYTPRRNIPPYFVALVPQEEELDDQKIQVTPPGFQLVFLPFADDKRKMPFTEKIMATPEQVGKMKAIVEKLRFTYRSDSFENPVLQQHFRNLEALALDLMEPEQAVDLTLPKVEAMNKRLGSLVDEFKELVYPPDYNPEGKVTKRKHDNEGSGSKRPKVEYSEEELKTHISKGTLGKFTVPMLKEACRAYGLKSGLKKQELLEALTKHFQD
UniProt P11142: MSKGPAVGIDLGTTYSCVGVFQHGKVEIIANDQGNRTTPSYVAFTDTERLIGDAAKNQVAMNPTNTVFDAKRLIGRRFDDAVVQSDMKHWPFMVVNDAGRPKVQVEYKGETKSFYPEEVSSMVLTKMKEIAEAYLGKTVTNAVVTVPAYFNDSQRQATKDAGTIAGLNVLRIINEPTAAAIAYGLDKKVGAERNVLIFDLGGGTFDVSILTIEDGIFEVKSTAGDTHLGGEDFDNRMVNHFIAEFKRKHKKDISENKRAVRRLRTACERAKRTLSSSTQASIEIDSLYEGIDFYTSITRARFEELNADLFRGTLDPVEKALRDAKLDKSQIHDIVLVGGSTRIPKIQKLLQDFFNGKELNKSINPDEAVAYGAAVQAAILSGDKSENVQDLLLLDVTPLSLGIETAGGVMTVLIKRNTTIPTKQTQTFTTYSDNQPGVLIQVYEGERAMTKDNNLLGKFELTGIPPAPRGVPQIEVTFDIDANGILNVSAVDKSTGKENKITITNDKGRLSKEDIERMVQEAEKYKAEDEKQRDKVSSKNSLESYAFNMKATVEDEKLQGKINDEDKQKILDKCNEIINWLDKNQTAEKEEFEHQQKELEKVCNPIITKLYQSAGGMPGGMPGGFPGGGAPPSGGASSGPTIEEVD
UniProt P78527: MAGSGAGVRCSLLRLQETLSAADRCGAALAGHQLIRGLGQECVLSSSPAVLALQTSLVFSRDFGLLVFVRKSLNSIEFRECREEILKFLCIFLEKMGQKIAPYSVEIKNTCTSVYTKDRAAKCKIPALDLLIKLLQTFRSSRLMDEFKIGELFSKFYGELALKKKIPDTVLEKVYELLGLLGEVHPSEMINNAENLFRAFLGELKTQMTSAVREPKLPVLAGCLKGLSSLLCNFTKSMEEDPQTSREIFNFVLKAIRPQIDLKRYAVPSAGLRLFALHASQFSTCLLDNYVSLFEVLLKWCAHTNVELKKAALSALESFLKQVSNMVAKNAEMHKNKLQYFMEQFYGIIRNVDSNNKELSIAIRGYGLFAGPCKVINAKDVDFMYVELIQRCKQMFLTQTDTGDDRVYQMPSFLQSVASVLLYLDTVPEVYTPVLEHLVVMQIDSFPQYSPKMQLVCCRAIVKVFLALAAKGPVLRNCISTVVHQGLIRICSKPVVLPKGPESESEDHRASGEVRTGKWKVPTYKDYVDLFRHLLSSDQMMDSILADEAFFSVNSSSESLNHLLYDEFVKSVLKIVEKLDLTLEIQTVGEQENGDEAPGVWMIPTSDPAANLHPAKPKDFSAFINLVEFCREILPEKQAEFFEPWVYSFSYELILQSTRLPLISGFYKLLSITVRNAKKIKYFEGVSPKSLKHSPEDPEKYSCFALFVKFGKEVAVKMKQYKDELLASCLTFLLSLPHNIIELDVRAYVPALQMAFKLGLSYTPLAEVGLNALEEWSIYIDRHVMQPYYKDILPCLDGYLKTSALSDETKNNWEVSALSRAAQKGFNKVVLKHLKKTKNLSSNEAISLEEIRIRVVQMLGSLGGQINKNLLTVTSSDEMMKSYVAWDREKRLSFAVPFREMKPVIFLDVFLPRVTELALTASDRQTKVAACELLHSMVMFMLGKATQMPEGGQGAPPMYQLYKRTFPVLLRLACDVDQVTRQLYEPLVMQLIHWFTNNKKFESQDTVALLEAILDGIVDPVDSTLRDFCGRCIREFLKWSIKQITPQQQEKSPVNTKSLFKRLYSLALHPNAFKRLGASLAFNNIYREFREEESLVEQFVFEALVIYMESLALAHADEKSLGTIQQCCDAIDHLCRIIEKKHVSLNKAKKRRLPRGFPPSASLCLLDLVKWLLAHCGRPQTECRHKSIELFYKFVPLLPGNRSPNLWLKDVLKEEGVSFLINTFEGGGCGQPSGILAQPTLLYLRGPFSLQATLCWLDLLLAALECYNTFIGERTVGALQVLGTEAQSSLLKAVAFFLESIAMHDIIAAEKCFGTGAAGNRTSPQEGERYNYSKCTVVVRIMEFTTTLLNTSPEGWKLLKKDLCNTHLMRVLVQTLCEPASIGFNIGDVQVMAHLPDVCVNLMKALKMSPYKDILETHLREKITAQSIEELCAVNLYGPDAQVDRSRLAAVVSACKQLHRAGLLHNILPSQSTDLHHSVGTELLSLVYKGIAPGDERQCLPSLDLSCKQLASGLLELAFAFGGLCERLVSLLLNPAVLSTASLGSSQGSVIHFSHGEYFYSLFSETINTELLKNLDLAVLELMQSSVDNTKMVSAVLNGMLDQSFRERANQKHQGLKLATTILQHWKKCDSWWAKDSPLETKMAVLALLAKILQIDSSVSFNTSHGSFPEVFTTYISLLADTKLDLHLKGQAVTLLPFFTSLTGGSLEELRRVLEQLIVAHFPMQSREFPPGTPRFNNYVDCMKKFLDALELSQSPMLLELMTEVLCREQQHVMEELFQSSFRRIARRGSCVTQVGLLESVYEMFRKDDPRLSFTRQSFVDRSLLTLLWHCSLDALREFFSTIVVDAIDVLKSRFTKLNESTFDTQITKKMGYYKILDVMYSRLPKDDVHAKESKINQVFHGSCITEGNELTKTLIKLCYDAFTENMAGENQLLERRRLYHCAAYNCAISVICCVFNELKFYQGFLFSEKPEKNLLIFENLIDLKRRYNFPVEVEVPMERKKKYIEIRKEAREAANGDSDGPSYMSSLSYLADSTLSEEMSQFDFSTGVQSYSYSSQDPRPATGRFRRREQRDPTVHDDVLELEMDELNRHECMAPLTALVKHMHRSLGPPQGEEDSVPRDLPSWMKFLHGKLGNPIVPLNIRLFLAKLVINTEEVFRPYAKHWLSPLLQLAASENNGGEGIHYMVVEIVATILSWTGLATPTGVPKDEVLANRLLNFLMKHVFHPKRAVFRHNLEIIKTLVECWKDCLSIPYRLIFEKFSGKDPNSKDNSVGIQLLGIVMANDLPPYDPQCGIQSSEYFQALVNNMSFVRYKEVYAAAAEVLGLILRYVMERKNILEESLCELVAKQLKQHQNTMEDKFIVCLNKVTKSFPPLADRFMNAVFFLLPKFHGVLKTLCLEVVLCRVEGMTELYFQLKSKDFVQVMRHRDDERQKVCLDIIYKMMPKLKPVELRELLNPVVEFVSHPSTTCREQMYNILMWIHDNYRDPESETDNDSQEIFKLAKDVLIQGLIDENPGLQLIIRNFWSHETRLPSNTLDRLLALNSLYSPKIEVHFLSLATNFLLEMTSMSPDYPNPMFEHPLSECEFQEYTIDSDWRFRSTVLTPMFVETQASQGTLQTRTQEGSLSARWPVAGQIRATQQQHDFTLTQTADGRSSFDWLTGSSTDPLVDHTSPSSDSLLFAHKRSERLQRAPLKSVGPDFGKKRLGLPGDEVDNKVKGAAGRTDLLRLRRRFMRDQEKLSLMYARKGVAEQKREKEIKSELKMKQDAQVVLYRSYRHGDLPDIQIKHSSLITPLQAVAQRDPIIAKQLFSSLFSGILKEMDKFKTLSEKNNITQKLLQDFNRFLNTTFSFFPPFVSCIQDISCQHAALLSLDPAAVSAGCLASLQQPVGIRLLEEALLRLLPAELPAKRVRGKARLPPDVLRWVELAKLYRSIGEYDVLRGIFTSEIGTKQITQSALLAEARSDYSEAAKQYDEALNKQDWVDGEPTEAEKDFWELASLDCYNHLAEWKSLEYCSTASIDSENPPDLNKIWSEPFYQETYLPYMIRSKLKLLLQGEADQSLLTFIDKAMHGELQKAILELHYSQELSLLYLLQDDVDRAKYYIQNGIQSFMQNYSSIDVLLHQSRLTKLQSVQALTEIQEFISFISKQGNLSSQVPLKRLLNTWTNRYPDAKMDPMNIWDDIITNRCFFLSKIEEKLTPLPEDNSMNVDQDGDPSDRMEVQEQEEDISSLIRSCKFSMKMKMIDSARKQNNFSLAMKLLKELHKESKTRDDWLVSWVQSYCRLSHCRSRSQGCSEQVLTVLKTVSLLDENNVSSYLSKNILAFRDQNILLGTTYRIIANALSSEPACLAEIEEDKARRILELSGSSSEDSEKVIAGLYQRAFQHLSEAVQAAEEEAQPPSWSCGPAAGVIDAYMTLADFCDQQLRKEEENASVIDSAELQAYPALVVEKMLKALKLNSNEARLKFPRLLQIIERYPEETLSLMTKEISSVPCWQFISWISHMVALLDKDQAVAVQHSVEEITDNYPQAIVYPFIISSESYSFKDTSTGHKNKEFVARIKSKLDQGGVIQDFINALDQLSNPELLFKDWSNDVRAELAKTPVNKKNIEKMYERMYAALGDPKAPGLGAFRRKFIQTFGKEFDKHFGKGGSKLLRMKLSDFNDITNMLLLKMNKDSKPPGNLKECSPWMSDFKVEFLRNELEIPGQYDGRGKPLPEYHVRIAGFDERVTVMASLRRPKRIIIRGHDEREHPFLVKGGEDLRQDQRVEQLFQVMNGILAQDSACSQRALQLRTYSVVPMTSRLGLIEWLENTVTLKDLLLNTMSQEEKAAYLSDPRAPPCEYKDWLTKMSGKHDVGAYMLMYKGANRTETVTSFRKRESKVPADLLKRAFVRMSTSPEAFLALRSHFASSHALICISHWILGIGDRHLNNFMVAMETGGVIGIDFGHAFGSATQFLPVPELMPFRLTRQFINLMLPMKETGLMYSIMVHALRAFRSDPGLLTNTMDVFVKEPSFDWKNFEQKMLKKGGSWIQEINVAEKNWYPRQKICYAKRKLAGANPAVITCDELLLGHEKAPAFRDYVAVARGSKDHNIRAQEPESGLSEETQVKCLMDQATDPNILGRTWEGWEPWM
UniProt P11940: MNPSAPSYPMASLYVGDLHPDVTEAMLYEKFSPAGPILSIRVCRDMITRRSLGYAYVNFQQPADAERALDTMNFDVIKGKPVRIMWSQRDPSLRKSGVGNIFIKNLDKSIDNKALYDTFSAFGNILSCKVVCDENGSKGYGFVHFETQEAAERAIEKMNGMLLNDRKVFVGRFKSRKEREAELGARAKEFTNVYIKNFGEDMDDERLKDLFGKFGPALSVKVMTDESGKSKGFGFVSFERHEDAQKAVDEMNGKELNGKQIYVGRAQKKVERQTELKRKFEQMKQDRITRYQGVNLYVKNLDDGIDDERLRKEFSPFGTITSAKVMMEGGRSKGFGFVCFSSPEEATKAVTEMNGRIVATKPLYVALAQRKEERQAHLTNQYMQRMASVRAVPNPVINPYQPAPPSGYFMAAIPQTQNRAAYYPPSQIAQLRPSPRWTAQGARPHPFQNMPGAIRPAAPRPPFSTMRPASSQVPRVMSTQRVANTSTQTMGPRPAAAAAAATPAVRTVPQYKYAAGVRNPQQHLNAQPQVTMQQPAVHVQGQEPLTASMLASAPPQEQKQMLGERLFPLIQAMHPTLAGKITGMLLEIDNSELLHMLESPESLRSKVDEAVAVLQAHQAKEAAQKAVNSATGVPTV

What was measured:
[1] = target: T1, HBoV1 NS1-70 with Flag and His tags (human bocavirus 1 (HBoV1)) (UniProt D0EZM8); assay: pull-down; both purified
T1 sequence: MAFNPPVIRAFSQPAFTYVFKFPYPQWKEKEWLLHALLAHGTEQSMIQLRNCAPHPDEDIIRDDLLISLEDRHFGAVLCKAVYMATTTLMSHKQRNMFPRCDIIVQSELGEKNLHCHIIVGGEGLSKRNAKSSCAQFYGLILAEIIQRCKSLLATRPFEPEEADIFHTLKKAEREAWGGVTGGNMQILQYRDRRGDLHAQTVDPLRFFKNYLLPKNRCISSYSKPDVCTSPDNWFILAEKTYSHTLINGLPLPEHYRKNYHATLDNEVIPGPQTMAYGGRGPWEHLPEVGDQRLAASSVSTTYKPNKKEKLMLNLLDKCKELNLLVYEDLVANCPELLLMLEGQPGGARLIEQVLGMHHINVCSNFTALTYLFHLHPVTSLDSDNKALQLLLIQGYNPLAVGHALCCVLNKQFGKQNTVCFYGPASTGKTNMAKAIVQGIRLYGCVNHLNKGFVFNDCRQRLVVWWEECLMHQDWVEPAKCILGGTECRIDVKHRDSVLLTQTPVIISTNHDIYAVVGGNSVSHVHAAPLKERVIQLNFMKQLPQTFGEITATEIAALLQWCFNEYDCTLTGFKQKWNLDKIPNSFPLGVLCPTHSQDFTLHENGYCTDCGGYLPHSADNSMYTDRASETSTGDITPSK

[2] = target: T2, HBoV1 NS1-100 with Flag tag (human bocavirus 1 (HBoV1)) (UniProt D0EZM8); assay: co-IP; HEK293 cells transfected with pCI-optNS1^Flag or pCI; lysis buffer 50 mM Tris pH 8.0, 150 mM NaCl, 1% NP-40, without Benzonase; anti-Flag affinity resin at 4°C overnight; Western blotting
T2 sequence: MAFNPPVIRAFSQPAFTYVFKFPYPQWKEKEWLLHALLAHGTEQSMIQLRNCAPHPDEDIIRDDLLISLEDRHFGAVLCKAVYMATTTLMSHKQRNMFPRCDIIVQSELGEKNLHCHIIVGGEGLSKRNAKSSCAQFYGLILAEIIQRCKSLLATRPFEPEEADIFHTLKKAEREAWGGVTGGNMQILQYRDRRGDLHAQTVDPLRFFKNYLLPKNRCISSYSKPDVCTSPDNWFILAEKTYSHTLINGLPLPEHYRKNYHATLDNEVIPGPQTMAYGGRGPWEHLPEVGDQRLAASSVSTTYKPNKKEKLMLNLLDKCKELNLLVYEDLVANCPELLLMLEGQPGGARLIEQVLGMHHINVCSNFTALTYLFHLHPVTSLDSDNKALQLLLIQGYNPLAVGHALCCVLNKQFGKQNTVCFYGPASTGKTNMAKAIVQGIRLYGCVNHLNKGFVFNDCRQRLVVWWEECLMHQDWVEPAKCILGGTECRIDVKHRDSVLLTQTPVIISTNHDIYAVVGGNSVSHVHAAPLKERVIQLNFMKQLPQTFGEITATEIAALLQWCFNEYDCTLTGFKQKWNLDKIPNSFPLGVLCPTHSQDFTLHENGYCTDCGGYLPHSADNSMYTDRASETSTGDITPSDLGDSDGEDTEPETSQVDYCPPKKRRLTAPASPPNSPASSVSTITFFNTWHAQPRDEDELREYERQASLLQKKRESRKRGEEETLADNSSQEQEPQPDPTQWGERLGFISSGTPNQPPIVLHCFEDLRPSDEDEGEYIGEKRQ

[3] = target: T2, HBoV1 NS1-100 with Flag tag (human bocavirus 1 (HBoV1)); assay: co-IP; HEK293 cells transfected with pCI-optNS1^Flag or pCI; lysate treated with 250 U of Benzonase; anti-Flag affinity resin at 4°C overnight; Western blotting

| Molecule | binding [1] | binding [2] | binding [3] |
| --- | --- | --- | --- |
| terminal arm of Ku70 domain C (C-Arm) with Strep-tag II (from UniProt P12956 437-534) (domain or fragment) | no binding (tested: 2 μg) |  |  |
| Ku70 (from UniProt P12956 1-609) |  | binds | binds |
| HSPA8 (from UniProt P11142 1-646) |  | binds | binds |
| Ku70 domain C (C-terminal domain) with Strep-tag II (from UniProt P12956 437-609) (domain or fragment) | binds |  |  |
| DNA-binding domain (SAP) of Ku70 domain C with Strep-tag II (from UniProt P12956 535-609) (domain or fragment) | no binding (tested: 2 μg) |  |  |
| Ku70 domain A (α/β domain) with Strep-tag II (from UniProt P12956 1-250) (domain or fragment) | binds |  |  |
| purified HSPA8 (from UniProt P11142 1-646) | binds |  |  |
| DNA-PKcs (DNA-dependent protein kinase catalytic subunit) (from UniProt P78527 1-4128) |  | binds | binds |
| Ku80 with GST tag (from UniProt P13010 1-732) | no binding (tested: 2 μg) |  |  |
| RPA1 (from UniProt P27694 1-616) |  | binds | binds |
| Ku70/Ku80 heterodimer (from UniProt P12956 1-609; P13010 1-732) (complex) | binds |  |  |
| PABPC1 (from UniProt P11940 1-636) |  | binds |  |
| ORC3 (protein, UniProt Q9UBD5 1-711) MATSSMSKGCFVFKPNSKKRKISLPIEDYFNKGKNEPEDSKLRFETYQLIWQQMKSENERLQEELNKNLFDNLIEFLQKSHSGFQKNSRDLGGQIKLREIPTAALVLGVNVTDHDLTFGSLTEALQNNVTPYVVSLQAKDCPDMKHFLQKLISQLMDCCVDIKSKEEESVHVTQRKTHYSMDSLSSWYMTVTQKTDPKMLSKKRTTSSQWQSPPVVVILKDMESFATKVLQDFIIISSQHLHEFPLILIFGIATSPIIIHRLLPHAVSSLLCIELFQSLSCKEHLTTVLDKLLLTTQFPFKINEKVLQVLTNIFLYHDFSVQNFIKGLQLSLLEHFYSQPLSVLCCNLPEAKRRINFLSNNQCENIRRLPSFRRYVEKQASEKQVALLTNERYLKEETQLLLENLHVYHMNYFLVLRCLHKFTSSLPKYPLGRQIRELYCTCLEKNIWDSEEYASVLQLLRMLAKDELMTILEKCFKVFKSYCENHLGSTAKRIEEFLAQFQSLDETKEEEDASGSQPKGLQKTDLYHLQKSLLEMKELRRSKKQTKFEVLRENVVNFIDCLVREYLLPPETQPLHEVVYFSAAHALREHLNAAPRIALHTALNNPYYYLKNEALKSEEGCIPNIAPDICIAYKLHLECSRLINLVDWSEAFATVVTAAEKMDANSATSEEMNEIIHARFIRAVSELELLGFIKPTKQKTDHVARLTWGGC |  | binds | binds |
| MCM3 (protein, UniProt P25205 1-808) MAGTVVLDDVELREAQRDYLDFLDDEEDQGIYQSKVRELISDNQYRLIVNVNDLRRKNEKRANRLLNNAFEELVAFQRALKDFVASIDATYAKQYEEFYVGLEGSFGSKHVSPRTLTSCFLSCVVCVEGIVTKCSLVRPKVVRSVHYCPATKKTIERRYSDLTTLVAFPSSSVYPTKDEENNPLETEYGLSVYKDHQTITIQEMPEKAPAGQLPRSVDVILDDDLVDKAKPGDRVQVVGTYRCLPGKKGGYTSGTFRTVLIACNVKQMSKDAQPSFSAEDIAKIKKFSKTRSKDIFDQLAKSLAPSIHGHDYVKKAILCLLLGGVERDLENGSHIRGDINILLIGDPSVAKSQLLRYVLCTAPRAIPTTGRGSSGVGLTAAVTTDQETGERRLEAGAMVLADRGVVCIDEFDKMSDMDRTAIHEVMEQGRVTIAKAGIHARLNARCSVLAAANPVYGRYDQYKTPMENIGLQDSLLSRFDLLFIMLDQMDPEQDREISDHVLRMHRYRAPGEQDGDAMPLGSAVDILATDDPNFSQEDQQDTQIYEKHDNLLHGTKKKKEKMVSAAFMKKYIHVAKIIKPVLTQESATYIAEEYSRLRSQDSMSSDTARTSPVTARTLETLIRLATAHAKARMSKTVDLQDAEEAVELVQYAYFKKVLEKEKKRKKRSEDESETEDEEEKSQEDQEQKRKRRKTRQPDAKDGDSYDPYDFSDTEEEMPQVHTPKTADSQETKESQKVELSESRLKAFKVALLDVFREAHAQSIGMNRLTESINRDSEEPFSSVEIQAALSKMQDDNQVMVSEGIIFLI |  | binds | binds |
| SNW1 (protein, UniProt Q13573 1-536) MALTSFLPAPTQLSQDQLEAEEKARSQRSRQTSLVSSRREPPPYGYRKGWIPRLLEDFGDGGAFPEIHVAQYPLDMGRKKKMSNALAIQVDSEGKIKYDAIARQGQSKDKVIYSKYTDLVPKEVMNADDPDLQRPDEEAIKEITEKTRVALEKSVSQKVAAAMPVRAADKLAPAQYIRYTPSQQGVAFNSGAKQRVIRMVEMQKDPMEPPRFKINKKIPRGPPSPPAPVMHSPSRKMTVKEQQEWKIPPCISNWKNAKGYTIPLDKRLAADGRGLQTVHINENFAKLAEALYIADRKAREAVEMRAQVERKMAQKEKEKHEEKLREMAQKARERRAGIKTHVEKEDGEARERDEIRHDRRKERQHDRNLSRAAPDKRSKLQRNENRDISEVIALGVPNPRTSNEVQYDQRLFNQSKGMDSGFAGGEDEIYNVYDQAWRGGKDMAQSIYRPSKNLDKDMYGDDLEARIKTNRFVPDKEFSGSDRRQRGREGPVQFEEDPFGLDKFLEEAKQHGGSKRPSDSSRPKEHEHEGKKRRKE |  | binds | binds |
